Test results: PubChem BioAssay AID1645887 (National Center for Advancing Translational Sciences (NCATS), 2021)
Where “and” joins values, the source holds several entries; their conditions need not be identical. Equal values may be shown once. Hit rate of the full screen: of about 16,000 compounds, about 40 (0.2%) were called active. About 1% were inconclusive and are not listed. Calls follow the shape of the dose curve; as a rule, active = well fitted activation curve with a large enough effect; inconclusive = small, poorly fitted or top-dose-only effect, or another doubt; inactive = no such curve, though single readings can be large or run the other way. The list shows a part of the results.

The compounds below were run against Rap guanine nucleotide exchange factor 4 (Homo sapiens) (UniProt Q8WZA2) (assay: Validation qHTS for agonist of cAMP-regulated guanine nucleotide exchange factor 4 (EPAC2)). Settings: EPAC2 Rap1B BODIPY-GDP exchange, fluorescence; activation: stronger effect = higher value.
Source text: Principle Investigator: Xiaodong Cheng Ph.D.
The University of Texas Medical Branch, […], TX
In multi-cellular eukaryotic organisms, the effects of cAMP are transduced by two ubiquitously-expressed intracellular cAMP receptors, the classic protein kinase A/cAMP-dependent protein kinase (PKA/cAPK) and the more recently discovered exchange protein directly activated by cAMP/cAMP-regulated guanine nucleotide exchange factor (EPAC/cAMP-GEF). Both PKA and EPAC are ubiquitously expressed in all tissues, and an increase in intracellular cAMP levels will lead to the activation of both PKA and EPAC. Therefore, careful dissections of the individual role and relative contribution of EPAC and PKA within the overall cAMP signaling in various model systems are critical for further elucidating the mechanism of cAMP signaling. To date no EPAC-specific antagonists and agonist, as well as isoform-specific agonists have been reported, and developing EPAC-specific pharmacological probes to determine the physiological functions that EPAC play in the overall cAMP-mediated signaling remains a major challenge within the research field. Furthermore, identified regulators of EPAC may lead to new mechanism-based therapeutic strategies specifically targeting the EPAC / cAMP-signaling components as EPAC has been implicated to play important roles in major human pathological conditions such as diabetes, heart disease, and cancer.
This qHTS will be used to screen the Molecular Libraries Small Molecule Repository (MLSMR) as a concentration-titration series using the NCGC unique quantitative screening (qHTS) platform to find activators for EPAC1. In addition, this assay will also be used as a counterscreen for the EPAC2 qHTS. This fluorescent based assay is developed and validated for EPAC1 that measures exchange using EPAC effector Rap1 complex with BODIPY-GDP, a GDP analog with a tethered fluorophores. Activators are identified by monitoring the change in fluorescence signal as the exchanged free BODIPY-GDP has a reduced fluorescence compared to Rap1-bound BODIPY-GDP. Increase in signal (activation) is the desired outcome for the EPAC1 agonist while no activity in this assay is desired for the EPAC2 agonist counterscreen.
[1] de Rooij, J., Zwartkruis, F. J., Verheijen, M. H., Cool, R. H., Nijman, S. M., Wittinghofer, A., and Bos, J.L. (1998) Nature 396, 474-477.
Briefly, three uL of reagents (100 nM EPAC2, 250 nM RAP1B-BODIPY-GDP, 50 uM GDP) were dispensed into a 1536-well Greiner black solid-bottom medium binding assay plate. Controls and test compounds (23 nL) were transferred to the plate via a Kalypsys pin tool equipped with a 1536-pin array. The plates were centrifuged at 1,000 rpm for 15 seconds followed by 5 minute incubation at room temperature. The assay plates were read at 5 minute intervals for 30 minutes in the ViewLux plate reader using 480nm excitation and 540nm emission filters. The results were normalized to the agonist positive control of 6.5 mM cAMP.
% is scaled to controls: 0 for no effect and ±100 for the full control effect; potency is read from the fitted curve at half-maximal effect.
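For activation in this document: exchange makes BODIPY-GDP fluorescence drop when released from Rap1B; series mostly up to about 150 µM.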

Chain of UniProt Q8WZA2 (Q8WZA2 whole entry, looked up): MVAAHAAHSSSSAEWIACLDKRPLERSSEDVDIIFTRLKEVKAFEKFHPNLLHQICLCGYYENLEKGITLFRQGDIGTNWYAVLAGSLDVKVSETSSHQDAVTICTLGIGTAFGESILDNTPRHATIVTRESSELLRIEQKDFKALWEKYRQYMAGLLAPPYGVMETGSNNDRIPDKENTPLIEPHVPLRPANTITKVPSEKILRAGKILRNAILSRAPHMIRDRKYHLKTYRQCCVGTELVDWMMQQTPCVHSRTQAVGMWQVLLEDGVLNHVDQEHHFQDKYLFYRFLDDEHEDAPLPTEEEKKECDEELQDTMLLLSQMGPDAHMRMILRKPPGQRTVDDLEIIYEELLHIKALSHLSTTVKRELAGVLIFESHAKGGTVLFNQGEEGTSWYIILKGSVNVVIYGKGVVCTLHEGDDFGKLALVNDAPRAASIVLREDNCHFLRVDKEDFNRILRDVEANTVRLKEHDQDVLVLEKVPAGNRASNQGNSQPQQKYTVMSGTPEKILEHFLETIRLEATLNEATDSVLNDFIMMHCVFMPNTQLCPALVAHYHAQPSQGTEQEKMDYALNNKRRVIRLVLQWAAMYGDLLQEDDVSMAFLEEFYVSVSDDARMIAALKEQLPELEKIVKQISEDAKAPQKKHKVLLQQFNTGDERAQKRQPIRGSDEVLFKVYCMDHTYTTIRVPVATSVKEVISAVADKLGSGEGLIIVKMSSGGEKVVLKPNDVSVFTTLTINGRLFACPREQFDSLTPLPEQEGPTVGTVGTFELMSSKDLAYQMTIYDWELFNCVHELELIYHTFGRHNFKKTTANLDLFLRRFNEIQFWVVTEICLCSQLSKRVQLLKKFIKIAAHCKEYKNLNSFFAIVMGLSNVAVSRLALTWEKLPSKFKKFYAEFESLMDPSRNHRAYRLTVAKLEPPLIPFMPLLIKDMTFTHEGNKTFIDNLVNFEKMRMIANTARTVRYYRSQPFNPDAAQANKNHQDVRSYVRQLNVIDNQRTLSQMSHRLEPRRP

Compound | activation | Potency
O=C1CC(c2ccc(O)cc2)Oc2ccccc21 (stereo not drawn) | inactive: -9.69% | –
O=C(C[n+]1cccc2cccc(O)c21)c1ccc(Cl)cc1 | inactive: -41.7% | –
Cc1cc(O)c(C=O)c2c1C(=O)Oc1c(COC(=O)/C=C/C(=O)O)c(O)c(C(=O)O)c(C)c1O2 | inactive: -23.7% | –
COc1cc(CNCc2cc3ccc(F)cc3nc2N2CCOCC2)cc(OC)c1OC | inactive: -8.48% | –
O=C(NC1CCC(n2cc(C(=O)NC3CC3)nn2)CC1)C(=O)c1ccccc1 (stereo not drawn) | inactive: -2.92% | –
C#Cc1cccc(Nc2ncnc3cc(OC)c(OC)cc23)c1 | inactive: -13.1% | –
O=S(=O)(c1ccccc1)N1CCC[C@@]2(CCN(Cc3nccs3)C2)C1 | inactive: -18.5% | –
CN(C)c1ccc(-c2ccc3ncnc(N(C)C)c3c2)cc1 | inactive: -6.19% | –
CN(C)CCOC(=O)COc1ccc(Cl)cc1 | inactive: -6.08% and inactive: -11.5% and inactive: -6.76% | –
CCOC(=O)c1cccnc1 | inactive: -6.59% | –
Brc1c(NC2=NCCN2)ccc2nccnc12 | inactive: -17.3% and inactive: -17% and inactive: -14.5% | –
Nc1cc(-c2ccncc2)c[nH]c1=O | – | active: 100 µM
CCOC(=O)c1c(C)n(C)c2ccc(O)cc12 | inactive: 0.314% | –
C[C@H]1C[C@@H]2[C@H]([C@@H](O)C[C@@]3(C)[C@H]2CC[C@]3(O)C(=O)COC(=O)CCC(=O)O)[C@@]2(C)C=CC(=O)C=C12 | inactive: 9% | –
OCCOCCOCCO | inactive: -10.7% | –
Cc1onc(-c2ccccc2)c1C(=O)NCCN1Cc2ccccc2OC(c2ccsc2)C1 (stereo not drawn) | inactive: -25% | –
COC(=O)C(N)CS (stereo not drawn) | inactive: -9.24% | –
CC(=O)OC1CCC2(O)CC1(C)CCC1C2CC1(C)C (stereo not drawn) | inactive: -18.1% | –
COc1ccc(-c2oc3ccccc3c(=O)c2O)cc1 | inactive: -6.99% | –
Cc1c(C(=O)NCCO)[n+](=O)c2ccccc2n1[O-] | inactive: 6.43% | –
CC(N)C12CC3CC(CC(C3)C1)C2 (stereo not drawn) | inactive: -6.29% | –
CCCCc1ccc2nc(NC(=O)OC)[nH]c2c1 | inactive: -6.22% | –

Compound | activation | Potency
COc1ccc(CNC(=O)[C@@H]2CC=C[C@@H]3CCN(C4CC4)C(=O)[C@@H]32)cc1 | inactive: -19% | –
COc1cc2oc(=O)c3c4c(cc5ccc(c1CCN(C)C)c2c53)OCO4 | inactive: -20.1% | –
CS(=O)(=O)Nc1ccc([N+](=O)[O-])cc1OC1CCCCC1 | inactive: -19.7% and inactive: 11.7% | –
NC(N)=NCC1COc2ccccc2O1 (stereo not drawn) | inactive: -33.2% | –
COc1ccc2[nH]cc(CCNc3cc(-c4ccc(C(=O)N(C)C)cc4)ncn3)c2c1 | inactive: 2.92% | –
Nc1c(Br)cc(Br)cc1CNC1CCC(O)CC1 (stereo not drawn) | inactive: -2.68% and inactive: 11.8% | –
CN(C)CC[C@@H](c1ccc(Cl)cc1)c1ccccn1 | inactive: 5.07% and inactive: -11.6% and inactive: -13.5% | –
COC(=O)C1CCN(Cc2ccc3c(c2)CN(C(=O)c2ccnn2C)CCO3)CC1 | inactive: -8.06% | –
COc1ccc(C(C)=O)cc1 | inactive: -20.7% | –
Cc1ncc2c(c1CNC(=O)c1ccc3c(c1)OCO3)CCN(C(=O)c1ccc3ccccc3c1)C2 | inactive: -2.62% | –
O=C1N[C@@H](Cc2c[nH]c3ccccc23)C(=O)N[C@H]1Cc1c[nH]c2ccccc12 | inactive: -20.6% | –
C[C@@H]1O[C@@H](OC[C@H]2O[C@@H](Oc3c(-c4cccc(O)c4O)oc4cc(O)cc(O)c4c3=O)[C@H](O)[C@@H](O)[C@@H]2O)[C@H](O)[C@H](O)[C@H]1O | inactive: -5.75% | –
O=C(O)c1cc(=O)c2ccc(Cl)cc2[nH]1 | inactive: -7.72% and inactive: -2.8% | –
O=C(Nc1ccccc1)[C@@H]1CC=C[C@@H]2CCN(C3CCCCC3)C(=O)[C@@H]21 | inactive: -10.4% | –
O=C(CC(=O)c1ccccc1)c1ccccc1 | inactive: 7.7% | –
COc1ccc(-n2c(=O)c(C)nc3cncnc32)cc1 | inactive: -19.1% | –
CN(CCOc1ccc(CC2SC(=O)NC2=O)cc1)c1ccccn1 (stereo not drawn) | inactive: -13.1% | –
O=C(Nc1cccc(F)c1)N1CCCC2(CCNCC2)C1 | inactive: 2.79% | –
CCC(=O)OCC(=O)[C@@]1(OC(=O)CC)[C@H](C)C[C@H]2[C@H]3[C@H]([C@@H](O)C[C@@]21C)[C@@]1(C)C=CC(=O)C=C1C[C@H]3Cl | inactive: -15.9% | –
CC(C)CN1CCC2(CC1)CCN(C(=O)c1cccn1C)CC2 | inactive: -7.6% | –
O=C(Cc1c[nH]c2ccccc12)N1CCC(n2c(C3CCCO3)nc3cc(C(F)(F)F)ccc32)CC1 (stereo not drawn) | inactive: -7.22% | –
